From patent US11685745B2, “Substituted benzoxazole and benzofuran compounds as PDE7 inhibitors” (Dart NeuroScience, LLC, priority 2017, dated 2023)

Molecular target: N-terminal truncated recombinant human PDE7B enzyme (Homo sapiens (Human), UniProt Q9NP56)
Assay: biochemical

SMILES | IC50 [nM]
O=C1Nc2c(Cl)cc3nc(CNC4CCC(F)(F)CC4)oc3c2C2(CCCCC2)N1 [Example 107, 5-Chloro-2-{[(4,4-difluorocyclohexyl)amino]methyl}-7,8-dihydro-6H-spiro[[1,3]oxazolo[5,4-f]quinazoline-9,1′-cyclohexane]-7-one] | 10 to 100
O=C1Nc2c(Cl)cc3nc(CN4CCC(F)(F)C4)oc3c2C2(CCCCC2)N1 [Example 46, 5-Chloro-2-[(3,3-difluoropyrrolidin-1-yl)methyl]-7,8-dihydro-6H-spiro[[1,3]oxazolo[5,4-f]quinazoline-9,1′-cyclohexane]-7-one] | 10 to 100
CCN(CC)C(=O)c1cc2cc(Cl)c3c(c2o1)C1(CCCCC1)NC(=O)N3 [Example 370, 5′-Chloro-N,N-diethyl-7′-oxo-7′,8′-dihydro-6′H-spiro[cyclohexane-1,9′-furo[2,3-f]quinazoline]-2′-carboxamide] | 10 to 100
N#CC1CCN(Cc2cc3cc(Cl)c4c(c3o2)C2(CCCCC2)NC(=O)N4)CC1 [Example 472, 1-{5′-Chloro-7′-oxo-7′,8′-dihydro-6′H-spiro[cyclohexane-1,9′-furo[2,3-f]quinazoline]-2′-ylmethyl}piperidine-4-carbonitrile] | 100 to 1000
CN(C)C1CCCN(C(=O)c2cc3cc(Cl)c4c(c3o2)C2(CCCCC2)NC(=O)N4)C1 (stereo not drawn) [Example 314, 5′-Chloro-2′-[3-(dimethylamino)piperidine-1-carbonyl]-7′,8′-dihydro-6′H-spiro[cyclohexane-1,9′-furo[2,3-f]quinazoline]-7′-one] | 100 to 1000
O=C1Nc2c(Cl)cc3cc(C(=O)N[C@H]4CC[C@@H](F)C4)oc3c2C2(CCCCC2)N1 [Example 383, 5′-Chloro-N-[(1S,3R)-3-fluorocyclopentyl]-7′-oxo-7′,8′-dihydro-6′H-spiro[cyclohexane-1,9′-furo[2,3-f]quinazoline]-2′-carboxamide] | 100 to 1000
CCN(CCN(C)C)C(=O)c1cc2cc(Cl)c3c(c2o1)C1(CCCCC1)NC(=O)N3 [Example 260, 5′-Chloro-N-[2-(dimethylamino)ethyl]-N-ethyl-7′-oxo-7′,8′-dihydro-6′H-spiro[cyclohexane-1,9′-furo[2,3-f]quinazoline]-2′-carboxamide] | 100 to 1000
COC1(C)CCN(Cc2nc3cc(Cl)c4c(c3o2)C2(CCCCC2)NC(=O)N4)CC1 [Example 77, 5-Chloro-2-[(4-methoxy-4-methylpiperidin-1-yl)methyl]-7,8-dihydro-6H-spiro[[1,3]oxazolo[5,4-f]quinazoline-9,1′-cyclohexane]-7-one] | 10 to 100
O=C1Nc2c(Cl)cc3cc(C(=O)NCc4ccncc4F)oc3c2C2(CCCCC2)N1 [Example 355, 5′-Chloro-N-[(3-fluoropyridin-4-yl)methyl]-7′-oxo-7′,8′-dihydro-6′H-spiro[cyclohexane-1,9′-furo[2,3-f]quinazoline]-2′-carboxamide] | 10 to 100
O=C1Nc2c(Cl)cc3nc(CCl)oc3c2C2(CCCCC2)N1 [Example 3, 5′-Chloro-2′-(chloromethyl)-6′H-spiro[cyclohexane-1,9′-oxazolo[5,4-f]quinazolin]-7′(8′H)-one] | 100 to 1000
O=C1Nc2c(Cl)cc3cc(CN4CCN5CCC[C@H]5C4)oc3c2C2(CCCCC2)N1 [Example 477, 2′-[(8aS)-Octahydropyrrolo[1,2-a]piperazin-2-ylmethyl]-5′-chloro-7′,8′-dihydro-6′H-spiro[cyclohexane-1,9′-furo[2,3-f]quinazoline]-7′-one] | 100 to 1000
O=C1Nc2c(Cl)cc3cc(CN4CCCCC4)oc3c2C2(CCCCC2)N1 [Example 241, 5′-Chloro-2′-(piperidin-1-ylmethyl)-7′,8′-dihydro-6′H-spiro[cyclohexane-1,9′-furo[2,3-f]quinazoline]-7′-one] | 100 to 1000
COCc1nc2cc(Cl)c3c(c2o1)C1(CCCCC1)NC(=O)N3 [Example 19, 5′-Chloro-2′-(methoxymethyl)-6′H-spiro[cyclohexane-1,9′-oxazolo[5,4-f]quinazolin]-7′(8′H)-one] | 10 to 100
O=C1Nc2c(Cl)cc3cc(C(=O)NCCc4ccc5c(c4)OCO5)oc3c2C2(CCCCC2)N1 [Example 337, N-[2-(2H-1,3-benzodioxol-5-yl)ethyl]-5′-chloro-7′-oxo-7′,8′-dihydro-6′H-spiro[cyclohexane-1,9′-furo[2,3-f]quinazoline]-2′-carboxamide] | 10 to 100
CN(C)Cc1nc2cc(Cl)c3c(c2o1)C1(CCCCC1)NC(=O)N3 [Example 31, 5-Chloro-2-[(dimethylamino)methyl]-7,8-dihydro-6H-spiro[[1,3]oxazolo[5,4-f]quinazoline-9,1′-cyclohexane]-7-one] | 10 to 100
O=C1Nc2c(Cl)cc3cc(CN4CCCC4)oc3c2C2(CCCCC2)N1 [Example 243, 5′-Chloro-2′-(pyrrolidin-1-ylmethyl)-7′,8′-dihydro-6′H-spiro[cyclohexane-1,9′-furo[2,3-f]quinazoline]-7′-one] | 100 to 1000
O=C1Nc2c(Cl)cc3cc(C(=O)NCC(F)(F)C4CCC4)oc3c2C2(CCCCC2)N1 [Example 396, 5′-Chloro-N-(2-cyclobutyl-2,2-difluoroethyl)-7′-oxo-7′,8′-dihydro-6′H-spiro[cyclohexane-1,9′-furo[2,3-f]quinazoline]-2′-carboxamide] | 100 to 1000

SMILES | IC50 [nM]
Cn1cncc1CNC(=O)c1cc2cc(Cl)c3c(c2o1)C1(CCCCC1)NC(=O)N3 [Example 364, 5′-Chloro-N-[(1-methyl-1H-imidazol-5-yl)methyl]-7′-oxo-7′,8′-dihydro-6′H-spiro[cyclohexane-1,9′-furo[2,3-f]quinazoline]-2′-carboxamide] | 10 to 100
CN(CCC(O)c1ccccc1)C(=O)c1cc2cc(Cl)c3c(c2o1)C1(CCCCC1)NC(=O)N3 (stereo not drawn) [Example 277, 5′-Chloro-N-(3-hydroxy-3-phenylpropyl)-N-methyl-7′-oxo-7′,8′-dihydro-6′H-spiro[cyclohexane-1,9′-furo[2,3-f]quinazoline]-2′-carboxamide] | 10 to 100
CC(C)NCc1nc2cc(Cl)c3c(c2o1)C1(CCCCC1)NC(=O)N3 [Example 39, 5-Chloro-2-{[(propan-2-yl)amino]methyl}-7,8-dihydro-6H-spiro[[1,3]oxazolo[5,4-f]quinazoline-9,1′-cyclohexane]-7-one] | 10 to 100
O=C1Nc2c(Cl)cc3nc(CN4CCCC4)oc3c2C2(CCCCC2)N1 [Example 38, 5-Chloro-2-(pyrrolidin-1-ylmethyl)-7,8-dihydro-6H-spiro[[1,3]oxazolo[5,4-f]quinazoline-9,1′-cyclohexane]-7-one] | 10 to 100
CCCN(CC)C(=O)c1cc2cc(Cl)c3c(c2o1)C1(CCCCC1)NC(=O)N3 [Example 403, 5′-Chloro-N-ethyl-7′-oxo-N-propyl-7′,8′-dihydro-6′H-spiro[cyclohexane-1,9′-furo[2,3-f]quinazoline]-2′-carboxamide] | 10 to 100
CN(C(=O)c1cc2cc(Cl)c3c(c2o1)C1(CCCCC1)NC(=O)N3)C1CCCC1 [Example 251, 5′-Chloro-N-cyclopentyl-N-methyl-7′-oxo-7′,8′-dihydro-6′H-spiro[cyclohexane-1,9′-furo[2,3-f]quinazoline]-2′-carboxamide] | 100 to 1000
O=C1Nc2c(Cl)cc3cc(C(=O)N4CC5C(C4)C5(F)F)oc3c2C2(CCCCC2)N1 (stereo not drawn) [Example 377, 5′-Chloro-2′-{6,6-difluoro-3-azabicyclo[3.1.0]hexane-3-carbonyl}-7′,8′-dihydro-6′H-spiro[cyclohexane-1,9′-furo[2,3-f]quinazoline]-7′-one] | 10 to 100
O=C1Nc2c(Cl)cc3nc(CNCCO)oc3c2C2(CCCCC2)N1 [Example 41, 5-Chloro-2-{[(2-hydroxyethyl)amino]methyl}-7,8-dihydro-6H-spiro[[1,3]oxazolo[5,4-f]quinazoline-9,1′-cyclohexane]-7-one] | 10 to 100
O=C1Nc2c(Cl)cc3nc(C(=O)N4CCN5CCC[C@@H]5C4)oc3c2C2(CCCCC2)N1 [Example 197, 2-[(8aR)-octahydropyrrolo[1,2-a]piperazine-2-carbonyl]-5-chloro-7,8-dihydro-6H-spiro[[1,3]oxazolo[5,4-f]quinazoline-9,1′-cyclohexane]-7-one] | 10 to 100
O=C1Nc2c(Cl)cc3nc(CNCc4ncc(F)cc4F)oc3c2C2(CCCCC2)N1 [Example 53, 5-Chloro-2-({[(3,5-difluoropyridin-2-yl)methyl]amino}methyl)-7,8-dihydro-6H-spiro[[1,3]oxazolo[5,4-f]quinazoline-9,1′-cyclohexane]-7-one] | 10 to 100
O=C1Nc2c(Cl)cc3cc(CNCC4CCCO4)oc3c2C2(CCCCC2)N1 (stereo not drawn) [Example 478, 5′-Chloro-2′-{[(oxolan-2-ylmethyl)amino]methyl}-7′,8′-dihydro-6′H-spiro[cyclohexane-1,9′-furo[2,3-f]quinazoline]-7′-one] | 100 to 1000
COC(=O)[C@@H]1CCCN(Cc2nc3cc(Cl)c4c(c3o2)C2(CCCCC2)NC(=O)N4)C1 [Example 137, Methyl (3R)-1-{5-chloro-7-oxo-7,8-dihydro-6H-spiro[[1,3]oxazolo[5,4-f]quinazoline-9,1′-cyclohexane]-2-ylmethyl}piperidine-3-carboxylate] | 10 to 100
O=C1Nc2c(Cl)cc3cc(C(=O)N4CCN(c5nccs5)CC4)oc3c2C2(CCCCC2)N1 [Example 447, 5′-Chloro-2′-[4-(1,3-thiazol-2-yl)piperazine-1-carbonyl]-7′,8′-dihydro-6′H-spiro[cyclohexane-1,9′-furo[2,3-f]quinazoline]-7′-one] | 10 to 100
CC1CC(NCc2nc3cc(Cl)c4c(c3o2)C2(CCCCC2)NC(=O)N4)CC(C)O1 (stereo not drawn) [Example 151, 5-Chloro-2-{[(2,6-dimethyloxan-4-yl)amino]methyl}-7,8-dihydro-6H-spiro[[1,3]oxazolo[5,4-f]quinazoline-9,1′-cyclohexane]-7-one] | 10 to 100
CN(CCO)Cc1nc2cc(Cl)c3c(c2o1)C1(CCCCC1)NC(=O)N3 [Example 44, 5-Chloro-2-{[(2-hydroxyethyl)(methyl)amino]methyl}-7,8-dihydro-6H-spiro[[1,3]oxazolo[5,4-f]quinazoline-9,1′-cyclohexane]-7-one] | 10 to 100
O=C1Nc2c(Cl)cc3nc(CNCc4ccccn4)oc3c2C2(CCCCC2)N1 [Example 59, 5-Chloro-2-{[(pyridin-2-ylmethyl)amino]methyl}-7,8-dihydro-6H-spiro[[1,3]oxazolo[5,4-f]quinazoline-9,1′-cyclohexane]-7-one] | 100 to 1000
